Assay results reported in article PMC5844987.
No constants are given. Whether binding was seen depends on the method and setting. Some entries that bind do so weakly or less than the wild type. Each block holds one binder with its values, some of them ahead of it.

Sequences of proteins named here, by UniProt entry; tags and fusion partners are left off.
UniProt P49597: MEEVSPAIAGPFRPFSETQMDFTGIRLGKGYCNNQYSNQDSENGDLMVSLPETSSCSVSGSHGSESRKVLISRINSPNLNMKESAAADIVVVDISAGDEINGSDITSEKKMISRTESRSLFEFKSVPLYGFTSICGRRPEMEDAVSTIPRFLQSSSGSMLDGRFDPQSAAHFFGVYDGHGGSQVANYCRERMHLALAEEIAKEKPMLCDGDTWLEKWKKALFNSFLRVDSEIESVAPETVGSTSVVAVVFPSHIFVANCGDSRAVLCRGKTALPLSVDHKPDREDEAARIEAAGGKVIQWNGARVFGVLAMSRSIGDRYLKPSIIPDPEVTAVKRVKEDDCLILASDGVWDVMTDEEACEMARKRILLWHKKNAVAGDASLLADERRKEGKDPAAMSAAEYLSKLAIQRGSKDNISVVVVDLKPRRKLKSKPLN

How the values were obtained:
[1] = biological target: type 2C-A protein phosphatase ABI1 (Arabidopsis) (UniProt P49597); test: AlphaScreen or HTRF; as a1 but with ABA (10 μM in Fig. 1b, concentration series in Fig. 1c,d, 100 μM in Fig. 1e)
[2] = biological target: T1, type 2C-A protein phosphatase HAI2 (Arabidopsis) (UniProt Q9LNW3); test: AlphaScreen or HTRF; as a1/a2 (Fig. 1e, absence or presence of 100 μM ABA); the sentence does not tell in which condition the pair was detected
T1 sequence: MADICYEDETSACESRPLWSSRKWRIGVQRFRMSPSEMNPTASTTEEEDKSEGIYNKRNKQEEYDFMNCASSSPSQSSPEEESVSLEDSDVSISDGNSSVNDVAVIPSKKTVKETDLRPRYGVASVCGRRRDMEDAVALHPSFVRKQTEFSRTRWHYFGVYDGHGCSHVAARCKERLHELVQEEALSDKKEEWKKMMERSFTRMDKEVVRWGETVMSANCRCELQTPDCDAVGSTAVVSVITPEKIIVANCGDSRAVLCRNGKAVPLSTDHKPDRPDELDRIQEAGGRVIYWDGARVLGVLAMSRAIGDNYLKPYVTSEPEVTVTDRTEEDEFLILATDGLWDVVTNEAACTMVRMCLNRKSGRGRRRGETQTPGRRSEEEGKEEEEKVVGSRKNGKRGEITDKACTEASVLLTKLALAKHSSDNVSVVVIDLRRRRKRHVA

[3] = biological target: type 2C-A protein phosphatase ABI1 (Arabidopsis) (UniProt P49597); test: AlphaScreen or HTRF; biotinylated ABA receptor and FLAG-PP2CA, crude wheat cell-free translation mixtures, without ABA (DMSO); 100 mM Tris-HCl pH 8.0, 0.1% Tween20, 1 mg/mL BSA, 25 °C 1 h; streptavidin donor beads, protein A acceptor beads with anti-FLAG M2; pair = signal at least five times that of DHFR
[4] = biological target: T2, type 2C-A protein phosphatase AHG3 (Arabidopsis) (UniProt P49598); test: AlphaScreen or HTRF; as a1/a2 (Fig. 1e, absence or presence of 100 μM ABA); the sentence does not tell in which condition the pair was detected
T2 sequence: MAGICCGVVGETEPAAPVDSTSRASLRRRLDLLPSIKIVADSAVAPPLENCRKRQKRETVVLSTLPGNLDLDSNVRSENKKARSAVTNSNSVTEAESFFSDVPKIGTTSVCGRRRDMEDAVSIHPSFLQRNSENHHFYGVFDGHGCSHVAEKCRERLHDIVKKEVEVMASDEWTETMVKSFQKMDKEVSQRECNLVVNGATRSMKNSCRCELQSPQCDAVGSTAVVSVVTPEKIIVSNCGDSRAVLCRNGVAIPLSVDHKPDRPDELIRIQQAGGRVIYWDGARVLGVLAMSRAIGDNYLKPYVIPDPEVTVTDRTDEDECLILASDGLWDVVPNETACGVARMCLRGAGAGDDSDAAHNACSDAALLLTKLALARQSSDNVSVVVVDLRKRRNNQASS

[5] = biological target: T3, ABA receptor PYL10 (Arabidopsis) (UniProt Q8H1R0); test: AlphaScreen or HTRF; as a9 but with 100 μM ABA
T3 sequence (chain, N-terminal mono-biotinylation (BirA)): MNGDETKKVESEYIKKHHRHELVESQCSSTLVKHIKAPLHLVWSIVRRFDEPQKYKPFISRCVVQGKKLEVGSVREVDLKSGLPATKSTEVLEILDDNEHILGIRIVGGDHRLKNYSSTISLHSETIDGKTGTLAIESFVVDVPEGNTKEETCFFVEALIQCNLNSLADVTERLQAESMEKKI

[6] = biological target: T3, ABA receptor PYL10 (Arabidopsis); test: AlphaScreen or HTRF; biotinylated ABA receptor and AGIA-tagged ABA receptor, crude wheat cell-free translation mixtures, without ABA; 14 x 14 matrix; pair = signal at least two times that of DHFR
[7] = biological target: T4, ABA receptor PYL3 (Arabidopsis) (UniProt Q9SSM7); test: AlphaScreen or HTRF; as a9 but with 100 μM ABA
T4 sequence (chain, N-terminal mono-biotinylation (BirA)): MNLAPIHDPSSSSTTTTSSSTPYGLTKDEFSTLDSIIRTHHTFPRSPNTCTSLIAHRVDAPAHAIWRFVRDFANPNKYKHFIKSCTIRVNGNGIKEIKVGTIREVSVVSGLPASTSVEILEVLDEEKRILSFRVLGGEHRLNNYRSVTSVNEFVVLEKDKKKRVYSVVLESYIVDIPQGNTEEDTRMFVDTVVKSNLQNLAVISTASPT

[8] = biological target: T4, ABA receptor PYL3 (Arabidopsis); test: AlphaScreen or HTRF; biotinylated ABA receptor and AGIA-tagged ABA receptor, crude wheat cell-free translation mixtures, without ABA; 14 x 14 matrix; pair = signal at least two times that of DHFR
[9] = biological target: T5, type 2C-A protein phosphatase AHG1 (Arabidopsis) (UniProt Q9FLI3); test: AlphaScreen or HTRF; as a1/a2 (Fig. 1e, absence or presence of 100 μM ABA); the sentence does not tell in which condition the pair was detected
T5 sequence: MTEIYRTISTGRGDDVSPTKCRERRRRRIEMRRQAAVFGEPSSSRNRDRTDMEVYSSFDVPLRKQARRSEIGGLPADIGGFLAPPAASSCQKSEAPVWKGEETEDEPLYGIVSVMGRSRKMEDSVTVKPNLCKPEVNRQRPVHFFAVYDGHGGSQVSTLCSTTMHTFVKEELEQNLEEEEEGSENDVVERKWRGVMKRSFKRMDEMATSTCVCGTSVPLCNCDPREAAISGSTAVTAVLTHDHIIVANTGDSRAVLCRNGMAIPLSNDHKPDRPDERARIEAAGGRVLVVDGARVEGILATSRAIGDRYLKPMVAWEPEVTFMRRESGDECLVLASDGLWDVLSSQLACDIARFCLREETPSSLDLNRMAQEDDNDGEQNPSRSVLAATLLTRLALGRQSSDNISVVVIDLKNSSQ

[10] = biological target: ABA receptor PYL13 (Arabidopsis) (UniProt Q9SN51); test: AlphaScreen or HTRF; as a9 but with 100 μM ABA
[11] = biological target: ABA receptor PYL13 (Arabidopsis) (UniProt Q9SN51); test: AlphaScreen or HTRF; biotinylated ABA receptor and AGIA-tagged ABA receptor, crude wheat cell-free translation mixtures, without ABA; 14 x 14 matrix; pair = signal at least two times that of DHFR
[12] = biological target: type 2C-A protein phosphatase ABI1 (Arabidopsis) (UniProt P49597); test: AlphaScreen or HTRF; as a1 but with JFA1 instead of ABA (100 μM in Fig. 2b, dose series in Fig. 2c); signal relative to 1% DMSO
[13] = biological target: type 2C-A protein phosphatase ABI1 (Arabidopsis) (UniProt P49597); test: AlphaScreen or HTRF; as a1 but with JFA2 instead of ABA (100 μM in Fig. 2b, dose series in Fig. 2c); signal relative to 1% DMSO
[14] = biological target: type 2C-A protein phosphatase ABI1 (Arabidopsis) (UniProt P49597); test: AlphaScreen or HTRF; as a1 but with pyrabactin instead of ABA (100 μM in Fig. 2b, dose series in Fig. 2c); signal relative to 1% DMSO
[15] = biological target: type 2C-A protein phosphatase ABI1 (Arabidopsis) (UniProt P49597); test: AlphaScreen or HTRF; as a1 but with quinabactin instead of ABA (100 μM in Fig. 2b, dose series in Fig. 2c); signal relative to 1% DMSO

binding [1]: binds
binding [2]: binds
binding [3]: binds
B1: ABA receptor PYL12 (receptor, UniProt Q9FJ49 1-159)
chain: MKTSQEQHVCGSTVVQTINAPLPLVWSILRRFDNPKTFKHFVKTCKLRSGDGGEGSVREVTVVSDLPASFSLERLDELDDESHVMVISIIGGDHRLVNYQSKTTVFVAAEEEKTVVVESYVVDVPEGNTEEETTLFADTIVGCNLRSLAKLSEKMMELT
modifications: N-terminal mono-biotinylation (BirA)

binding [4]: binds
binding [3]: binds
B3: ABA receptor PYL9 (receptor, UniProt Q84MC7 1-187)
chain: MMDGVEGGTAMYGGLETVQYVRTHHQHLCRENQCTSALVKHIKAPLHLVWSLVRRFDQPQKYKPFVSRCTVIGDPEIGSLREVNVKSGLPATTSTERLELLDDEEHILGIKIIGGDHRLKNYSSILTVHPEIIEGRAGTMVIESFVVDVPQGNTKDETCYFVEALIRCNLKSLADVSERLASQDITQ
modifications: N-terminal mono-biotinylation (BirA)

binding [4]: binds
binding [3]: binds
B5: ABA receptor PYL10 (receptor, UniProt Q8H1R0 1-183)
chain: T3 sequence (chain, N-terminal mono-biotinylation (BirA))
modifications: N-terminal mono-biotinylation (BirA)

binding [10]: binds
binding [7]: binds
binding [11]: binds
binding [8]: binds
B9: ABA receptor PYL13 (receptor, UniProt Q9SN51 1-164)
chain: MESSKQKRCRSSVVETIEAPLPLVWSILRSFDKPQAYQRFVKSCTMRSGGGGGKGGEGKGSVRDVTLVSGFPADFSTERLEELDDESHVMVVSIIGGNHRLVNYKSKTKVVASPEDMAKKTVVVESYVVDVPEGTSEEDTIFFVDNIIRYNLTSLAKLTKKMMK
modifications: N-terminal mono-biotinylation (BirA)

binding [1]: binds
binding [12]: binds
binding [13]: binds
binding [14]: binds
binding [15]: binds
binding [4]: binds
binding [2]: binds
binding [3]: binds
B10: ABA receptor PYL11 (receptor, UniProt Q9FJ50 1-161)
chain: METSQKYHTCGSTLVQTIDAPLSLVWSILRRFDNPQAYKQFVKTCNLSSGDGGEGSVREVTVVSGLPAEFSRERLDELDDESHVMMISIIGGDHRLVNYRSKTMAFVAADTEEKTVVVESYVVDVPEGNSEEETTSFADTIVGFNLKSLAKLSERVAHLKL
modifications: N-terminal mono-biotinylation (BirA)

More lines, now with the values behind:

B2: ABA receptor PYL7 (receptor, UniProt Q1ECF1 1-211)
chain: MEMIGGDDTDTEMYGALVTAQSLRLRHLHHCRENQCTSVLVKYIQAPVHLVWSLVRRFDQPQKYKPFISRCTVNGDPEIGCLREVNVKSGLPATTSTERLEQLDDEEHILGINIIGGDHRLKNYSSILTVHPEMIDGRSGTMVMESFVVDVPQGNTKDDTCYFVESLIKCNLKSLACVSERLAAQDITNSIATFCNASNGYREKNHTETNL
modifications: N-terminal mono-biotinylation (BirA)
binding [4]: binds

B4: ABA receptor PYL5 (receptor, UniProt Q9FLB1 1-203)
chain: MRSPVQLQHGSDATNGFHTLQPHDQTDGPIKRVCLTRGMHVPEHVAMHHTHDVGPDQCCSSVVQMIHAPPESVWALVRRFDNPKVYKNFIRQCRIVQGDGLHVGDLREVMVVSGLPAVSSTERLEILDEERHVISFSVVGGDHRLKNYRSVTTLHASDDEGTVVVESYIVDVPPGNTEEETLSFVDTIVRCNLQSLARSTNRQ
modifications: N-terminal mono-biotinylation (BirA)
binding [5]: binds
binding [1]: binds
binding [4]: binds
binding [6]: binds
binding [3]: binds

B6: ABA receptor PYL3 (receptor, UniProt Q9SSM7 1-209)
chain: T4 sequence (chain, N-terminal mono-biotinylation (BirA))
modifications: N-terminal mono-biotinylation (BirA)
binding [7]: binds
binding [8]: binds

B7: ABA receptor PYL6 (receptor, UniProt Q8S8E3 1-215)
chain: MPTSIQFQRSSTAAEAANATVRNYPHHHQKQVQKVSLTRGMADVPEHVELSHTHVVGPSQCFSVVVQDVEAPVSTVWSILSRFEHPQAYKHFVKSCHVVIGDGREVGSVREVRVVSGLPAAFSLERLEIMDDDRHVISFSVVGGDHRLMNYKSVTTVHESEEDSDGKKRTRVVESYVVDVPAGNDKEETCSFADTIVRCNLQSLAKLAENTSKFS
modifications: N-terminal mono-biotinylation (BirA)
binding [4]: binds

B8: ABA receptor PYL8 (receptor, UniProt Q9FGM1 1-188)
chain: MEANGIENLTNPNQEREFIRRHHKHELVDNQCSSTLVKHINAPVHIVWSLVRRFDQPQKYKPFISRCVVKGNMEIGTVREVDVKSGLPATRSTERLELLDDNEHILSIRIVGGDHRLKNYSSIISLHPETIEGRIGTLVIESFVVDVPEGNTKDETCYFVEALIKCNLKSLADISERLAVQDTTESRV
modifications: N-terminal mono-biotinylation (BirA)
binding [9]: binds
binding [3]: binds
